Laboratory results taken from the supplement of paper PMC8728848.
The other results are listed elsewhere or left out.

How the values were obtained:
Assay in all cases: glycan array binding signal (z-score within array); higher = stronger binding
Details in all cases: glycan notation: IUPAC condensed, linker removed
[1] = molecular target: Fuc(a1-2)Gal(b1-4)GlcNAc(b1-3)Gal(b1-4)GlcNAc(b1-3)Gal(b1-4)GlcNAc
Procedure, shortened: (§1)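 Negative Z-scores can be read as non-binding. The Z-score is calculated within each array and then averaged across arrays of one protein sequence at different concentrations or buffers and across linkers. Arrays, 3228 in all, were curated from the Consortium for Functional Glycomics database and kept only where the protein sequence was available.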

[2] = molecular target: Fuc(a1-2)Gal(b1-4)GlcNAc(b1-3)GalNAc
Procedure, shortened: as §1

[3] = molecular target: Fuc(a1-2)Gal(b1-4)GlcNAc(b1-3)[Fuc(a1-2)Gal(b1-4)GlcNAc(b1-6)]GalNAc
Procedure, shortened: as §1

[4] = molecular target: Fuc(a1-2)Gal(b1-4)GlcNAc(b1-3)[Fuc(a1-3)[Gal(b1-4)]GlcNAc(b1-6)]Gal(b1-4)Glc
Procedure, shortened: as §1

[5] = molecular target: Fuc(a1-2)Gal(b1-4)GlcNAc(b1-6)GalNAc
Procedure, shortened: as §1

[6] = molecular target: Fuc(a1-2)Gal(b1-4)GlcNAc6S
Procedure, shortened: as §1

[7] = molecular target: Fuc(a1-2)Gal(b1-4)[Fuc(a1-3)]GlcNAc
Procedure, shortened: as §1

[8] = molecular target: Fuc(a1-2)Gal(b1-4)[Fuc(a1-3)]GlcNAc(b1-2)Man(a1-3)[Fuc(a1-2)Gal(b1-4)[Fuc(a1-3)]GlcNAc(b1-2)Man(a1-6)]Man(b1-4)GlcNAc(b1-4)[Fuc(a1-6)]GlcNAc
Procedure, shortened: as §1

[9] = molecular target: Fuc(a1-2)Gal(b1-4)[Fuc(a1-3)]GlcNAc(b1-2)[Fuc(a1-2)Gal(b1-4)[Fuc(a1-3)]GlcNAc(b1-4)]Man(a1-3)[Fuc(a1-2)Gal(b1-4)[Fuc(a1-3)]GlcNAc(b1-2)Man(a1-6)]Man(b1-4)GlcNAc(b1-4)GlcNAc
Procedure, shortened: as §1

[10] = molecular target: Fuc(a1-2)Gal(b1-4)[Fuc(a1-3)]GlcNAc(b1-3)Gal(b1-4)[Fuc(a1-3)]GlcNAc
Procedure, shortened: as §1

[11] = molecular target: Fuc(a1-2)Gal(b1-4)[Fuc(a1-3)]GlcNAc(b1-3)Gal(b1-4)[Fuc(a1-3)]GlcNAc(b1-3)Gal(b1-4)[Fuc(a1-3)]GlcNAc
Procedure, shortened: as §1

[12] = molecular target: Fuc(a1-2)Gal(b1-4)[Fuc(a1-3)]GlcNAc(b1-3)GalNAc
Procedure, shortened: as §1

[13] = molecular target: Fuc(a1-2)Gal(b1-4)[Fuc(a1-3)]GlcNAc(b1-3)[Neu5Ac(a2-6)Gal(b1-4)GlcNAc(b1-6)]Gal(b1-4)Glc
Procedure, shortened: as §1

[14] = molecular target: Fuc(a1-2)Gal3S(b1-4)GlcNAc
Procedure, shortened: as §1

[15] = molecular target: Fuc(a1-2)Gal6S(b1-3)GlcNAc
Procedure, shortened: as §1

[16] = molecular target: Fuc(a1-2)Gal6S(b1-3)GlcNAc6S
Procedure, shortened: as §1

Fuc(a1-2)Gal6S(b1-4)Glc = molecular target: Fuc(a1-2)Gal6S(b1-4)Glc
Procedure, shortened: as §1

[17] = molecular target: Fuc(a1-2)Gal6S(b1-4)Glc6S
Procedure, shortened: as §1

Fuc(a1-2)[Gal(a1-3)]Gal = molecular target: Fuc(a1-2)[Gal(a1-3)]Gal
Procedure, shortened: as §1

[18] = molecular target: Fuc(a1-2)[Gal(a1-3)]Gal(b1-3)GalNAc
Procedure, shortened: as §1

[19] = molecular target: Fuc(a1-2)[Gal(a1-3)]Gal(b1-3)GalNAc(b1-3)Gal(a1-4)Gal(b1-4)Glc
Procedure, shortened: as §1

[20] = molecular target: Fuc(a1-2)[Gal(a1-3)]Gal(b1-3)GlcNAc
Procedure, shortened: as §1

[21] = molecular target: Fuc(a1-2)[Gal(a1-3)]Gal(b1-3)GlcNAc(b1-2)Man(a1-3)[Fuc(a1-2)[Gal(a1-3)]Gal(b1-3)GlcNAc(b1-2)Man(a1-6)]Man(b1-4)GlcNAc(b1-4)GlcNAc
Procedure, shortened: as §1

[22] = molecular target: Fuc(a1-2)[Gal(a1-3)]Gal(b1-3)GlcNAc(b1-2)Man(a1-3)[Fuc(a1-2)[Gal(a1-3)]Gal(b1-3)GlcNAc(b1-2)Man(a1-6)]Man(b1-4)GlcNAc(b1-4)[Fuc(a1-6)]GlcNAc
Procedure, shortened: as §1

[23] = molecular target: Fuc(a1-2)[Gal(a1-3)]Gal(b1-3)GlcNAc(b1-3)GalNAc
Procedure, shortened: as §1

[24] = molecular target: Fuc(a1-2)[Gal(a1-3)]Gal(b1-3)GlcNAc(b1-6)GalNAc
Procedure, shortened: as §1

[25] = molecular target: Fuc(a1-2)[Gal(a1-3)]Gal(b1-4)Glc
Procedure, shortened: as §1

[26] = molecular target: Fuc(a1-2)[Gal(a1-3)]Gal(b1-4)GlcNAc
Procedure, shortened: as §1

[27] = molecular target: Fuc(a1-2)[Gal(a1-3)]Gal(b1-4)GlcNAc(b1-2)Man
Procedure, shortened: as §1

[28] = molecular target: Fuc(a1-2)[Gal(a1-3)]Gal(b1-4)GlcNAc(b1-2)Man(a1-3)[Fuc(a1-2)[Gal(a1-3)]Gal(b1-4)GlcNAc(b1-2)Man(a1-6)]Man(b1-4)GlcNAc(b1-4)GlcNAc
Procedure, shortened: as §1

B1: Pbx1 (Cryptococcus neoformans) (protein)
chain: ATTKCLVSGDQDSINNALALGGEGTTVTLCPGSVHRLNSSIIFTAPSQTLTTLGNPKDRNRAMLVVDGEDLACAIRADCKQCSHAMIRSLVIDGNRPQLLRIPKGDALIEVGNAESQTVRDCKLYEPRGWSALHFREGDERQCRFGHIVDNEIGPCGEEWDDEYDSMDETKPLWGNPRADGISLACKDSIVERNVVYDATDGAIVLFGSAGSTVKNNHVYARTRVILGGINLVDYEPWDGDYTNVKVHHNHLYALGRYFKVGIVIGPASWSDDTESVVHSASVTDNEFSGGYWGYGIVVASAKNFEVLRNKVIWDGEQGVARFSGVPGSRCPKAPENGKPTAFLINRGSAKGIFQDDFVNGEVQHIICLNPDQDPPYKPWRFRDSPEAIAAKQAENPTANSAFDSRIAEALVSYQMSLLNSMDAMTQKVEHLTNPIVDDALPFVHEHERAEADKKARQEASRKEKESGNKDVDMLNVKVEELEKSGRRLKKALDGLKSDFEGLSGRLKKSADENKPIIETIFVTSQNLLLGATSQQN
glycan array binding signal (z-score) [1]: -0.224 | glycan array binding signal (z-score) [2]: 0.197 | glycan array binding signal (z-score) [3]: 0.42 | glycan array binding signal (z-score) [4]: 0.18 | glycan array binding signal (z-score) [5]: 0.406 | glycan array binding signal (z-score) [6]: -0.356 | glycan array binding signal (z-score) [7]: -0.326 | glycan array binding signal (z-score) [8]: 0.778 | glycan array binding signal (z-score) [9]: 0.738 | glycan array binding signal (z-score) [10]: 0.13 | glycan array binding signal (z-score) [11]: -0.478 | glycan array binding signal (z-score) [12]: 1.16 | glycan array binding signal (z-score) [13]: 1.13 | glycan array binding signal (z-score) [14]: 0.345 | glycan array binding signal (z-score) [15]: 0.434 | glycan array binding signal (z-score) [16]: 1.88 | glycan array binding signal (z-score) (Fuc(a1-2)Gal6S(b1-4)Glc): -0.057 | glycan array binding signal (z-score) [17]: -0.449 | glycan array binding signal (z-score) (Fuc(a1-2)[Gal(a1-3)]Gal): -0.844 | glycan array binding signal (z-score) [18]: -0.092 | glycan array binding signal (z-score) [19]: -0.412 | glycan array binding signal (z-score) [20]: 0.272 | glycan array binding signal (z-score) [21]: 0.05 | glycan array binding signal (z-score) [22]: 0.282 | glycan array binding signal (z-score) [23]: -0.437 | glycan array binding signal (z-score) [24]: -0.296 | glycan array binding signal (z-score) [25]: 0.291 | glycan array binding signal (z-score) [26]: -0.654 | glycan array binding signal (z-score) [27]: -0.203 | glycan array binding signal (z-score) [28]: 1.13
